Survival data for 89 compounds are collected here from PubChem BioAssay AID463173 (ICCB-Longwood Screening Facility, Harvard Medical School, 2010).

In all, about 52,000 compounds went through this assay and about 1,700 (3.3%) were called active. Rule as the data show it: active = survival mostly below about 52% (no sharp cut-off); inactive = mostly above about 56%. This is one part of the list.

The test relates to Wild type. Nature of the test: S. aureus survival, RN4220 and DeltatarO strains – OD600, teichoic acid synthesis inhibitors, primary screen (AID 463173). The note with it: S. aureus RN4220 wild type/DeltatarO growth, OD600, 18 h, active compounds read low, screened at 18.75 µg/mL (by protocol).
Consider `CCc1ccccc1N(C)S(=O)(=O)c1ccc2c(c1)C(C)(C)C(=O)N2C`, for which the survival was inactive: 99%.

Consider `CCCNC(=O)Cn1nc(C(F)(F)F)c2c1CCC2`, for which the survival was inactive: 119%.

Take `COCCNC(=S)N1CCC(C(=O)c2ccc(F)cc2)CC1`: the survival is inactive: 111%.

As to `COc1ccc(CCN2C(=O)c3[nH]nc(-c4ccccc4O)c3C2c2ccccc2)cc1` (centres undefined), the survival is inactive: 67%.

Consider `C=CCSc1nc2sc3c(c2c(=O)[nH]1)CC(C)(C)OC3`, for which the survival was inactive: 112%.

For `C=Cc1ccc(Cn2ccn(-c3ccc(F)c(F)c3)c(=O)c2=O)cc1`, the survival was inactive: 117%.

As for `COc1cc(NC(=O)CC2C(=O)N(c3cccc(C)c3)C(=O)N2Cc2cccs2)cc(OC)c1` (centres undefined), the survival is inactive: 53%.

For `Cc1ccc(C(=O)Nc2ccc3[nH]c(=O)c(=O)[nH]c3c2)cc1`, the survival is inactive: 87%.

`CC(C)Oc1ccc(CNC(=O)Cn2c(-c3cccs3)cc3ccccc32)cc1`: the survival is inactive: 64%.

In the case of `COc1cccc(C(=O)Nc2ccc(S(=O)(=O)N(Cc3ccccc3)c3ccccc3)cc2)c1`, the survival is inactive: 80%.

Turning to `CCS(=O)(=O)N1CCc2cc(C(=O)NCCc3ccc(OC)c(OC)c3)ccc21`, the survival is inactive: 85%.

With `Cc1ccc(C2CCN(C(=O)Nc3ccc(C)c(C)c3)C2)cc1` (centres undefined), the survival was inactive: 66%.

As for `CC1CCC(CC(=O)O)(CC(=O)O)CC1`, the survival was inactive: 105%.

For the compound `Cc1ccc(NC(=O)c2sc3ncnc(N(C)C4CCCCC4)c3c2C)cc1`, the survival was inactive: 148%.

`C[N+](C)(C)CC(O)COc1ccccc1` (centres undefined): the survival is inactive: 107%.

`Cc1ccc(C)c(N2CCN(c3nc4ccccc4c(=O)n3-c3ccccc3)CC2)c1`: the survival was active: 10%.

For `O=c1c2c3c(sc2n(Cc2ccc(F)cc2Cl)c(=O)n1-c1ccc(Cl)cc1)CCC3`, the survival was inactive: 140%.

For `CC(=O)c1ccc(N2CCN(C(=O)C3CCN(S(=O)(=O)c4c(C)noc4/C=C/c4ccccc4F)CC3)CC2)cc1`, the survival is inactive: 74%.

Turning to `Cc1cc(C)c(S(=O)(=O)NCCc2csc3nc(-c4ccc(Cl)cc4)nn23)c(C)c1`, the survival was inactive: 65%.

In the case of `CCOC(=O)COc1nc(C)c(Br)c(OC)n1`, the survival was inactive: 108%.

For the compound `COC(=O)CSc1nc2cc(OC)c(OC)cc2cc1C`, the survival was inactive: 110%.

Regarding `CCOc1ccc2cc(-c3nnc(Nc4ccc(C)cc4)s3)c(=O)oc2c1`, the survival was inactive: 86%.

With `Cc1ccccc1OCc1ccc(-c2nc(C#N)c(N3CCC(C(N)=O)CC3)o2)o1`, the survival is inactive: 66%.

As for `CCOc1ccc2c(c1)c(=O)c(S(=O)(=O)c1ccc(Cl)cc1)cn2Cc1ccccc1C`, the survival is inactive: 90%.

Take `COc1cccc(Nc2nc3ccc(C(=O)c4ccccc4)cc3n3c(C)nnc23)c1`: the survival is inactive: 80%.

For the compound `COc1ccc(NC(=O)c2ccc(NC(=O)CCS(=O)(=O)c3cccs3)cc2)cc1`, the survival was inactive: 92%.

For `Oc1c(Cl)cc(Cl)cc1CNn1cnnc1`, the survival was inactive: 92%.

`O=C(Nc1ccc(Cl)c(-c2nc3cc(Cl)ccc3o2)c1)c1cc2ccccc2o1`: the survival is inactive: 67%.

`Cc1ccc(C)c(CN2C(=O)c3ccccc3S(=O)c3ccc(C(=O)NCCC4=CCCCC4)cc32)c1` (centres undefined): the survival was inactive: 81%.

Turning to `COc1ccc(CCC(=O)NCCc2csc(-c3cccc(C)c3)n2)cc1`, the survival was inactive: 76%.

As to `Cc1ccccc1-c1nc(SCC(=O)N(C)c2ccccc2)c2c(=O)n(C)c(=O)n(C)c2n1`, the survival was inactive: 60%.

`Cc1ccccc1NS(=O)(=O)c1nnc(NC(=O)c2ccco2)s1`: the survival was inactive: 78%.

For `CCOC(=O)c1c(S(=O)(=O)NCC(=O)N(C)c2ccc(C)cc2)c(C)n(C)c1C`, the survival is inactive: 119%.

On to `CC(C)Oc1ccc(C(=O)Nc2nonc2-c2ccc(OC(C)C)cc2)cc1`, for which the survival was inactive: 92%.

On to `COC(=O)CCN(C(=O)C1CCN(S(=O)(=O)c2c(C)noc2/C=C/c2ccccc2F)CC1)c1ccccc1`, for which the survival was inactive: 126%.

For the compound `CCc1cccc(NC(=O)Cn2nc3c4cc(F)ccc4n(Cc4cccc(C)c4)cc-3c2=O)c1`, the survival is inactive: 82%.

For `O=C(O)c1ccccc1SC1CC(=O)N(Cc2ccccc2)C1=O` (centres undefined), the survival was inactive: 97%.

As for `CCc1ccccc1N1C(=O)N(CC(=O)c2ccc(OC)cc2)c2ccccc2S1(=O)=O`, the survival was inactive: 71%.

In the case of `O=c1[nH]c2cc3c(cc2cc1CN(Cc1ccco1)S(=O)(=O)c1cccc(C(F)(F)F)c1)OCO3`, the survival was inactive: 112%.

In the case of `CCOC(=O)c1cc(C)n(CC2CCC(C(=O)Nc3cc(OC)cc(OC)c3)CC2)c1C` (centres undefined), the survival is inactive: 148%.

For the compound `COc1cc(NC(=O)CC(c2cccs2)N2Cc3ccccc3C2=O)cc(OC)c1OC` (centres undefined), the survival is inactive: 22%.

On to `CCCNC(=O)c1cnc2c(-c3ccc(OCC)c(OCC)c3)c(C)nn2c1-c1ccccc1`, for which the survival was inactive: 76%.

As to `CC(C)n1c(=N)c(C(=O)NC2CCCCC2)cc2c(=O)n3ccccc3nc21`, the survival was inactive: 73%.

For `Clc1cccc(CSc2nnc(C3CCNCC3)o2)c1`, the survival was inactive: 109%.

On to `COc1ccc(NC(=O)C(=O)NCc2ccco2)cc1`, for which the survival was inactive: 85%.

For `CC(=O)NNc1nc(Cl)nc(N(C)C)n1`, the survival was inactive: 103%.

Turning to `CCN(CCCNC(=O)Cn1ncc2c([nH]c3ccc(C)cc32)c1=O)Cc1ccccc1`, the survival was inactive: 55%.

Take `CC(=O)c1ccc(NC(=O)Cn2nc(C(F)(F)F)c3c2CCCC3)cc1`: the survival was inactive: 64%.

Turning to `COc1cccc(CN(C(=O)c2cccc(C)c2)C2CCS(=O)(=O)C2)c1` (centres undefined), the survival is inactive: 86%.

For the compound `COc1ccc(OC)c(-c2noc(N3CCN(c4cccc(C)c4C)CC3)n2)c1`, the survival was inactive: 85%.

As for `CCSc1nn(CC(=O)Nc2cccc(Cl)c2)c(N)c1S(=O)(=O)c1ccc(OC)cc1`, the survival is inactive: 81%.

In the case of `COC(=O)c1ccccc1NC(=O)C1=C(C)C(=O)OC12CCC(C)CC2` (centres undefined), the survival is active: -6%.

As for `Cc1ccc(CSc2oc(-c3cccs3)nc2S(=O)(=O)c2ccc(C)cc2)cc1`, the survival is inactive: 128%.

With `COC(=O)CC1Oc2ccc(C)cc2-n2cc(-c3ccc(C)cc3)nc21` (centres undefined), the survival was inactive: 47%.

Consider `Cc1cc(N2CCC3CCCC(C2)N3Cc2ccccc2)n2c(n1)nc1ccccc12` (centres undefined), for which the survival is inactive: 116%.

With `CCc1ccc(NC(=O)Cn2c(=O)n(-c3cc(C)cc(C)c3)c(=O)c3oc4ccccc4c32)cc1`, the survival was inactive: 79%.

For `COc1ccc(-c2nc(SCC(=O)Nc3ccc4c(c3)OCCO4)c(-c3ccccc3)[nH]2)cc1`, the survival was inactive: 66%.

Turning to `CCCN(CCC)C(=O)Cn1c(=O)n(Cc2ccc(C(=O)NCCc3ccc(Cl)cc3)cc2)c(=O)c2ccccc21`, the survival is inactive: 113%.

`COc1ccccc1Cn1cc(C(=O)c2ccc(C)cc2)c(=O)c2cc(F)cc(F)c21`: the survival is inactive: 81%.

For the compound `CCOC(=O)/C(C#N)=C/c1ccc(-c2ccc(C)cc2)o1`, the survival was inactive: 122%.

As for `Cc1ccc(-n2nc3c(=O)n(CCCC(=O)NC(C)c4ccccc4)nc(C)c3c2C)cc1` (centres undefined), the survival is inactive: 60%.

In the case of `CC(C)CC(=O)Nc1nnc(S(=O)(=O)N2CCc3ccccc32)s1`, the survival is inactive: 81%.

For the compound `Cc1ccc2oc(C(=O)Nc3sc4c(c3C(=O)NCc3cccnc3)CCCC4)cc(=O)c2c1`, the survival is inactive: 95%.

Take `COc1ccccc1NS(=O)(=O)c1cc2c(cc1Cl)NC(=O)CO2`: the survival is inactive: 83%.

On to `CCOc1ccc(CCNC(=O)CSc2cc(=O)n(C)c3ccc(Cl)cc23)cc1OCC`, for which the survival is inactive: 119%.

On to `O=C1CN(C(=O)Nc2ccccc2C(F)(F)F)C(c2ccccc2)c2c(sc3c2CCCC3)N1` (centres undefined), for which the survival is inactive: 83%.

Take `c1ccc(C2CN3CCSC3=N2)cc1` (centres undefined): the survival was inactive: 109%.

In the case of `CC(C)Oc1ccc(CNC(=O)c2ccc(Cn3c(=O)c4cccn4c4cccnc43)cc2)cc1`, the survival is inactive: 85%.

As to `Cc1ccc(NC(=O)CSc2ccc(-c3sc(-c4ccccc4)nc3C)nn2)cc1F`, the survival is inactive: 43%.

Consider `CCN1C(=O)C2(c3ccccc31)c1c(oc3ccc(F)cc3c1=O)C(=O)N2CCCOC` (centres undefined), for which the survival was inactive: 84%.

For `CCCc1cnc2c(c1SCc1ccc(C(F)(F)F)cc1)c(=O)n(C)c(=O)n2C`, the survival is inactive: 53%.

For the compound `O=C1C=C(N2CCCCC2)C2(CCCCC2)O1`, the survival was inactive: 120%.

Consider `CN(C)S(=O)(=O)c1ccc(C(=O)Nc2ccc(-n3nncc3-c3ccccc3)cc2)cc1`, for which the survival was inactive: 119%.

For the compound `Cc1cccc(N2CCN(C(=O)CCSCc3ccccc3F)CC2)c1C`, the survival is inactive: 81%.

With `COc1ccccc1N1CCN(C(=O)Cn2ncc3c(=O)oc4ccc(C)cc4c32)CC1`, the survival is inactive: 89%.

Take `O=C(Cn1cc(/C=N/NC(=O)c2ccc(Oc3ccc(O)cc3)cc2)c2ccccc21)NCc1ccco1`: the survival was inactive: 109%.

For the compound `Cc1cccc(CNC(=O)c2cnc3sc(N4CCCCCC4)nn3c2=O)c1`, the survival is inactive: 125%.

With `COc1ccc(-c2nsc(NC(=O)c3oc4cc(C)c(C)cc4c3C)n2)cc1`, the survival is inactive: 94%.

On to `Cc1ccc(N(Cc2cccs2)C(=O)COc2cccc(C)c2)cc1`, for which the survival was inactive: 85%.

Take `CC(=O)c1ccc(NC(=O)Cn2c(=O)n(Cc3ccco3)c(=O)c3sc4ccccc4c32)cc1`: the survival is inactive: 78%.

In the case of `CCN1CCN(c2cc(C)c3cc(NC(=O)c4cc(Cl)ccc4OC)ccc3n2)CC1`, the survival is active: 2%.

On to `Cc1nn2c(=O)cc(COC(=O)CNC(=O)c3ccc(F)cc3)nc2s1`, for which the survival was inactive: 66%.

As for `COc1ccc(C2=NC(C)(C)N(CC(=O)Nc3ccc(F)c(F)c3)C2=O)cc1`, the survival was inactive: 83%.

On to `CCc1nnc(SCC(=O)N2c3ccc(F)cc3CCC2C)n1C` (centres undefined), for which the survival was inactive: 120%.

Turning to `COc1ccc(C(C(=O)NCc2cccs2)N(Cc2ccco2)C(=O)Cn2nnc(-c3cccs3)n2)cc1` (centres undefined), the survival was inactive: 117%.

Regarding `COc1cccc(OC)c1C(=O)Nc1ccc(S(=O)(=O)Nc2nccc(C)n2)cc1`, the survival is inactive: 65%.

Regarding `Cc1ccc(-n2ncc(C(=O)NCCCN3CCCCC3)c2C2CCN(C(=O)OC(C)(C)C)CC2)cc1`, the survival is inactive: 74%.

On to `O=C(O)CCCNC1=NCCN1`, for which the survival was inactive: 99%.

Regarding `Cc1ccc(OCC(O)Cn2c(=N)n(CCN3CCCCC3)c3ccccc32)cc1` (centres undefined), the survival is inactive: 74%.
